Experimental findings from article PMC4196162 are described below.

Results are given in words; binding and its absence hold for the method and conditions named. In cells and extracts the contact can be indirect. Some binding calls cover weakened binding; strength is not graded here.

The target in experiment [1] is T1, ß-catenin (human (endogenous in MCF7 and T47D)), P35222.
T1 chain: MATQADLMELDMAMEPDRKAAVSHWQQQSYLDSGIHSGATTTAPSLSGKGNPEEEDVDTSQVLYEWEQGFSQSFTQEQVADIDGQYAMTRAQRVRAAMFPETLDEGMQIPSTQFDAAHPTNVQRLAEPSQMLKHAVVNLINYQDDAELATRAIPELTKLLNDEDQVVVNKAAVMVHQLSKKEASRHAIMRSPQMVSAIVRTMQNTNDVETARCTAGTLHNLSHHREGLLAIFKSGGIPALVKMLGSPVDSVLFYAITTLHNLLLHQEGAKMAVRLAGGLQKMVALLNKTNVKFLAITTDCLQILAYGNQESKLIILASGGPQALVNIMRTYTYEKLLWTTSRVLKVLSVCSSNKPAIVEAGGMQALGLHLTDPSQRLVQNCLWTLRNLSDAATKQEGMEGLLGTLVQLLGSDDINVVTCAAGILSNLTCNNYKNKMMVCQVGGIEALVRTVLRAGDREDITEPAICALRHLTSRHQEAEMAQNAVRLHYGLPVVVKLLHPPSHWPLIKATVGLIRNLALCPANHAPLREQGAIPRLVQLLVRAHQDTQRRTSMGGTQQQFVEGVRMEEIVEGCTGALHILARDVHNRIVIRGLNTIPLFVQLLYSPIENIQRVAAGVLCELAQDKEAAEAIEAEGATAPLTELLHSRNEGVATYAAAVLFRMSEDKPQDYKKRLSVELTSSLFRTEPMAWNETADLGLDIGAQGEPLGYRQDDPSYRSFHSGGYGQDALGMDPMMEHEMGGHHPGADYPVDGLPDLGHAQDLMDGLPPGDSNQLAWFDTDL
The experiment is described as follows: co-IP; endogenous proteins, MCF7 whole cell lysates, Protein A sepharose; mouse and rabbit IgG as negative controls; Western blot. Conditions: remark: other sources report otherwise. In general terms: In western blotting, separated proteins are transferred to a membrane and probed.

Experiment [2] addresses T1, ß-catenin (human (endogenous in MCF7 …)). Briefly: co-IP; endogenous proteins, T47D whole cell lysates, Protein A sepharose; Western blot. The following applies: remark: other sources report otherwise.
Experiment [3] addresses T2, BCL9-2 (BCL9L, B-Cell Lymphoma 9-like) (human (endogenous in MCF7 and T47D)) (UniProt Q86UU0).
T2 sequence: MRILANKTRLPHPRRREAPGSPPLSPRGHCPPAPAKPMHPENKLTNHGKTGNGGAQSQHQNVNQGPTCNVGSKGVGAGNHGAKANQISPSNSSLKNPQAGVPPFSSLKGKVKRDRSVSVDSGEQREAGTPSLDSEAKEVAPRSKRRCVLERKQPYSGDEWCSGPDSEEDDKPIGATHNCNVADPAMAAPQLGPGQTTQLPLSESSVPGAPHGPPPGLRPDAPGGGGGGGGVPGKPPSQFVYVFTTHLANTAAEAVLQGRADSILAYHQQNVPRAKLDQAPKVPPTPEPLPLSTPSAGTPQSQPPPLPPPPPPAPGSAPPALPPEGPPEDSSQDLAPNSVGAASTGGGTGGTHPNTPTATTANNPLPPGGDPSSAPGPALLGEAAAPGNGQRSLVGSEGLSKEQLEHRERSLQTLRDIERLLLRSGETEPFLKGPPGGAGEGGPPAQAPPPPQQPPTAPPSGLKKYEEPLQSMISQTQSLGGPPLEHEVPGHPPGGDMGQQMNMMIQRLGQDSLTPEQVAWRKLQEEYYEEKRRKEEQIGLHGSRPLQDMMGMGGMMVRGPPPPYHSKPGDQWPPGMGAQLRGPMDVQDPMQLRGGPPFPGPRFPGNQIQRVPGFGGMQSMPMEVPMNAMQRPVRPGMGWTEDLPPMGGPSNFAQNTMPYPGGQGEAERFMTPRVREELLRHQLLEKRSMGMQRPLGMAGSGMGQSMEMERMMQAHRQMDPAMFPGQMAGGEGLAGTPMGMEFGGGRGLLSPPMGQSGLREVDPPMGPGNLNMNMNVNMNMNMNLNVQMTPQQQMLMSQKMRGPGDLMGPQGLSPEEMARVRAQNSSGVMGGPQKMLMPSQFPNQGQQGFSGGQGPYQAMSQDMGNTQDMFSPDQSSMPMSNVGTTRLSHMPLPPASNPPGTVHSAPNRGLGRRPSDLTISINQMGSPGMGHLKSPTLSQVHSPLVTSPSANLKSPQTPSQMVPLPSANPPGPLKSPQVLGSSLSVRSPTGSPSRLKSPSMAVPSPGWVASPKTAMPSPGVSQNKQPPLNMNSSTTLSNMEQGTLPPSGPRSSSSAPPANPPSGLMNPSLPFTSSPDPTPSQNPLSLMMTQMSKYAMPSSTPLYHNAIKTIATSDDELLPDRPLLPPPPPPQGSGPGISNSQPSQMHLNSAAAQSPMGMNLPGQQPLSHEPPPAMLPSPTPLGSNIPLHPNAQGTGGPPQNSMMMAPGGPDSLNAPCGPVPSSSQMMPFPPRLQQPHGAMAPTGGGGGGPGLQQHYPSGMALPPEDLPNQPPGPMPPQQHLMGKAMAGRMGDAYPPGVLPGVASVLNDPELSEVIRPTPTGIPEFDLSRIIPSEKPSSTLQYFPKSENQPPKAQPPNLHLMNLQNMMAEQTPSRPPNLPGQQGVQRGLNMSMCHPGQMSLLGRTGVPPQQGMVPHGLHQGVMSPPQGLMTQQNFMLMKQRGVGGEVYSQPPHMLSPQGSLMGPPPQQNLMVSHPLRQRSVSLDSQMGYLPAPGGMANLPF
The experiment is described as follows: co-IP; endogenous proteins, MCF7 whole cell lysates, Protein A sepharose; mouse and rabbit IgG as negative controls; Western blot.

The target in experiment [4] is T2, BCL9-2 (BCL9L, B-Cell Lymphoma 9-like) (human (endogenous in MCF7 and T47D)). The experiment is described as follows: co-IP; endogenous proteins, T47D whole cell lysates, Protein A sepharose; Western blot.

B1: BCL9-2 (BCL9L, B-Cell Lymphoma 9-like), Q86UU0 1-1499 (protein)
chain: MRILANKTRLPHPRRREAPGSPPLSPRGHCPPAPAKPMHPENKLTNHGKTGNGGAQSQHQNVNQGPTCNVGSKGVGAGNHGAKANQISPSNSSLKNPQAGVPPFSSLKGKVKRDRSVSVDSGEQREAGTPSLDSEAKEVAPRSKRRCVLERKQPYSGDEWCSGPDSEEDDKPIGATHNCNVADPAMAAPQLGPGQTTQLPLSESSVPGAPHGPPPGLRPDAPGGGGGGGGVPGKPPSQFVYVFTTHLANTAAEAVLQGRADSILAYHQQNVPRAKLDQAPKVPPTPEPLPLSTPSAGTPQSQPPPLPPPPPPAPGSAPPALPPEGPPEDSSQDLAPNSVGAASTGGGTGGTHPNTPTATTANNPLPPGGDPSSAPGPALLGEAAAPGNGQRSLVGSEGLSKEQLEHRERSLQTLRDIERLLLRSGETEPFLKGPPGGAGEGGPPAQAPPPPQQPPTAPPSGLKKYEEPLQSMISQTQSLGGPPLEHEVPGHPPGGDMGQQMNMMIQRLGQDSLTPEQVAWRKLQEEYYEEKRRKEEQIGLHGSRPLQDMMGMGGMMVRGPPPPYHSKPGDQWPPGMGAQLRGPMDVQDPMQLRGGPPFPGPRFPGNQIQRVPGFGGMQSMPMEVPMNAMQRPVRPGMGWTEDLPPMGGPSNFAQNTMPYPGGQGEAERFMTPRVREELLRHQLLEKRSMGMQRPLGMAGSGMGQSMEMERMMQAHRQMDPAMFPGQMAGGEGLAGTPMGMEFGGGRGLLSPPMGQSGLREVDPPMGPGNLNMNMNVNMNMNMNLNVQMTPQQQMLMSQKMRGPGDLMGPQGLSPEEMARVRAQNSSGVMGGPQKMLMPSQFPNQGQQGFSGGQGPYQAMSQDMGNTQDMFSPDQSSMPMSNVGTTRLSHMPLPPASNPPGTVHSAPNRGLGRRPSDLTISINQMGSPGMGHLKSPTLSQVHSPLVTSPSANLKSPQTPSQMVPLPSANPPGPLKSPQVLGSSLSVRSPTGSPSRLKSPSMAVPSPGWVASPKTAMPSPGVSQNKQPPLNMNSSTTLSNMEQGTLPPSGPRSSSSAPPANPPSGLMNPSLPFTSSPDPTPSQNPLSLMMTQMSKYAMPSSTPLYHNAIKTIATSDDELLPDRPLLPPPPPPQGSGPGISNSQPSQMHLNSAAAQSPMGMNLPGQQPLSHEPPPAMLPSPTPLGSNIPLHPNAQGTGGPPQNSMMMAPGGPDSLNAPCGPVPSSSQMMPFPPRLQQPHGAMAPTGGGGGGPGLQQHYPSGMALPPEDLPNQPPGPMPPQQHLMGKAMAGRMGDAYPPGVLPGVASVLNDPELSEVIRPTPTGIPEFDLSRIIPSEKPSSTLQYFPKSENQPPKAQPPNLHLMNLQNMMAEQTPSRPPNLPGQQGVQRGLNMSMCHPGQMSLLGRTGVPPQQGMVPHGLHQGVMSPPQGLMTQQNFMLMKQRGVGGEVYSQPPHMLSPQGSLMGPPPQQNLMVSHPLRQRSVSLDSQMGYLPAPGGMANLPF
As for B1, the binding result in experiment [1] and in experiment [2] was “no binding” throughout.

B2: Pygo2 (protein, UniProt Q9BRQ0 1-406)
chain: MAASAPPPPDKLEGGGGPAPPPAPPSTGRKQGKAGLQMKSPEKKRRKSNTQGPAYSHLTEFAPPPTPMVDHLVASNPFEDDFGAPKVGVAAPPFLGSPVPFGGFRVQGGMAGQVPPGYSTGGGGGPQPLRRQPPPFPPNPMGPAFNMPPQGPGYPPPGNMNFPSQPFNQPLGQNFSPPSGQMMPGPVGGFGPMISPTMGQPPRAELGPPSLSQRFAQPGAPFGPSPLQRPGQGLPSLPPNTSPFPGPDPGFPGPGGEDGGKPLNPPASTAFPQEPHSGSPAAAVNGNQPSFPPNSSGRGGGTPDANSLAPPGKAGGGSGPQPPPGLVYPCGACRSEVNDDQDAILCEASCQKWFHRECTGMTESAYGLLTTEASAVWACDLCLKTKEIQSVYIREGMGQLVAANDG
With B2, the binding entry in experiment [3] and in experiment [4] was “binds” each time.

B3: Pygo2, Q9BRQ0 1-406 (protein)
chain: MAASAPPPPDKLEGGGGPAPPPAPPSTGRKQGKAGLQMKSPEKKRRKSNTQGPAYSHLTEFAPPPTPMVDHLVASNPFEDDFGAPKVGVAAPPFLGSPVPFGGFRVQGGMAGQVPPGYSTGGGGGPQPLRRQPPPFPPNPMGPAFNMPPQGPGYPPPGNMNFPSQPFNQPLGQNFSPPSGQMMPGPVGGFGPMISPTMGQPPRAELGPPSLSQRFAQPGAPFGPSPLQRPGQGLPSLPPNTSPFPGPDPGFPGPGGEDGGKPLNPPASTAFPQEPHSGSPAAAVNGNQPSFPPNSSGRGGGTPDANSLAPPGKAGGGSGPQPPPGLVYPCGACRSEVNDDQDAILCEASCQKWFHRECTGMTESAYGLLTTEASAVWACDLCLKTKEIQSVYIREGMGQLVAANDG
As for B3, the binding entry in experiment [1] and in experiment [2] was “no binding” throughout.
